Test results as given in PubChem BioAssay AID2451 (National Center for Advancing Translational Sciences (NCATS), 2010).
“And” between values parts separate entries of the source, which are not always exact repeats. Identical values can stand only once. The campaign covered roughly 290,000 compounds. About 2,100 (0.72%) were called active. This list was built around the results that the source calls inconclusive (neither active nor inactive); the mix of calls is not that of the screen. Calls follow the shape of the dose curve; as a rule, active = well fitted inhibition curve with a large enough effect; inconclusive = small, poorly fitted or top-dose-only effect, or effect the other way; inactive = flat fitted curve, though single readings scatter. A potency beside an inconclusive call is a rough fit, not a confirmed value.

target: Fructose-bisphosphate aldolase (Giardia intestinalis (strain ATCC 50803 / WB clone C6)) (UniProt A8B2U2); test: qHTS Assay for Inhibitors of Fructose-1,6-bisphosphate Aldolase from Giardia Lamblia; conditions: purified Giardia FBPA; activity, negative = inhibition: at 59.6 µM (top of the series) unless noted; also: nearly all actives have a fitted effect of over 55% in size
Excerpt: Assay Provider: Osnat Herzberg, University of Maryland
The objective of this project is to obtain compounds that inhibit Giardia lamblia growth. G. lamblia is a human pathogen which afflicts impoverished nations; it is the most common cause of outbreaks of diarrhea in the United States. During the course of our study of potential drug targets in Giardia, we have identified the Class II (Zn2+ functions in electrophilic catalysis) fructose-1,6-bisphosphate aldolase (FBPA) as an excellent candidate for drug targeting. FBPA is a key glycolytic pathway enzyme, essential for G. lamblia survival. The human FBPA belongs to the Class I aldolases, which have a different substrate binding site structure and a radically different catalytic mechanism (employing a lysine-Schiff base intermediate). Therefore, affinity-based or mechanism-based inhibitors of the Giardia FBPA are expected not to interfere with the catalytic function of the human FBPA.
A glyceraldehyde-3-phosphate dehydrogenase/triose phosphate isomerase/NAD/arsenate coupled assay was adapted to the 1536-well HTP format for use in the primary screen. This was done by coupling it to a diaphorase/resazurin/resorufin reaction that can be monitored by fluorescence (excitation, 544 nm; emission, 590 nm). Compounds identified in this screen will be further evaluated by coupling the glycerol-3-phosphate/triose phosphate isomerase/NADH assay to a phenazine methosulfate/tetranitroblue tetrazolium color reaction. False positives due to the dehydrogenases and diaphorase inhibition will be eliminated, and selectivity assay will triage inhibitors of mammalian triose phosphate isomerase and the Class I FBPA. G. lamblia FBPA inhibitors identified by the in vitro analyses will be examined for growth inhibition of Giardia trophozoites, and for cytotoxicity in human cells.
Step,Parameter,Value,Description
1,Enzyme reagent,2 uL,40 nM FBPA
2,Compound,23 nL,3.68 nM-57.5 uM final concentration
3,Time,10 min,RT Incubation
4,Substrate/detection Reagent,2 uL,Substrate + enzyme coupling system + AmpLite Red kit
5,Time,20 min,RT Incubation
6,Detector,525 nm/598 nm (Fluorescence),ViewLux Fluorescence Read (Read 1)
1,Medium-binding black solid-bottom Kalypsys plates. FRD or Kalypsys dispenser, 2 uL of FBPA enzyme. Bottle kept at 4C.
2,Compound Library (10 mM ,1:5 dilution). Pin-transferred for a [final] range of 3.68 nM-57.5 uM.
4,FRD or Kalypsys dispenser, 2 uL of reaction mixture. Bottle kept at 4C and covered in foil to protect from light.
6,ViewLux Protocol 1194; Excitation filter wheel A (525/20 Pol; BODIPY TMR FP), Emission filter wheel B (598/25 S; BODIPY TMR FP S).
Keywords: Fructose-bisphosphate aldolase, FBPA , Giardia lamblia , Giardia, HTS, Inhibitors
% is scaled to controls: 0 for no effect and ±100 for the full control effect; potency is read from the fitted curve at half-maximal effect; tags tell the direction and shape of the fitted curve.

Chain of UniProt A8B2U2 (A8B2U2 whole entry, looked up): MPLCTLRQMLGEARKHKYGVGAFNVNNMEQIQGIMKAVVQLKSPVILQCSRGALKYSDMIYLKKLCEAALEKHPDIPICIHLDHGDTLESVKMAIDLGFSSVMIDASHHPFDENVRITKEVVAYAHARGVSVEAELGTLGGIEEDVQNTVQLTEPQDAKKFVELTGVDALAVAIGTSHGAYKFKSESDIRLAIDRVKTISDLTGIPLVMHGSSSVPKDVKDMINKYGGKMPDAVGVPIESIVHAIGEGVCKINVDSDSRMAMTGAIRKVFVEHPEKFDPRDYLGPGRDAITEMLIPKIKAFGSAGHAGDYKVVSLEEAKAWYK

Compound | Potency | activity, negative = inhibition
O=C(O)c1cccc(-n2c(-c3cnccn3)n[nH]c2=S)c1 | active: 19.9 µM | 
COc1ccc(-n2c(O)c(C=NCC(c3ccco3)N3CCCC3)c3ccccc3c2=O)cc1OC (stereo not given) | inconclusive: 11.2 µM [inhibitor, partial curve] | 
CN(CCOc1cccc(C(F)(F)F)c1)Cc1ccccc1 | inconclusive: 19.9 µM [inhibitor, partial curve] | 
Cc1ccc2nc(SC(C)C(=O)NC3CCCc4ccccc43)[nH]c2c1 (stereo not given) | inconclusive: 17.7 µM [inhibitor, single point] | 
COc1cc(O)c2c(c1)oc(=O)c1c3cc(O)c(O)cc3oc21 | inconclusive: 19.9 µM [inhibitor, partial curve] | 
CCN1C2=C(C(=O)CCC2)C(c2ccc(O)c(Br)c2)C2=C1CCCC2=O | inconclusive: 15.8 µM [inhibitor, partial curve] | 
COc1ccc(N(CC(=O)Nc2ccc3c(c2)OCO3)S(=O)(=O)c2ccccc2)c(OC)c1 |  | inactive: -9.97%
CCN(CC)c1ccc(/C=C2\C(=O)N(c3nnc(C)c(=O)[nH]3)N=C2C)cc1 | inconclusive: 15.8 µM [inhibitor, partial curve] | 
CCCCc1ccc(C(=O)O)nc1 | active: 9.98 µM and active: 8.89 µM and active: 15.8 µM | 
CCOC(=O)c1c2c(c(=S)n(-c3ccccc3)c1N)CCC2 | inconclusive: 17.7 µM [inhibitor, single point] | 
Cc1cccc(C(=O)NC(CC(=O)O)c2ccc(OC3CCCC3)cc2)c1[N+](=O)[O-] (stereo not given) | inconclusive: 17.7 µM [activator, single point] | 
CC(=O)NCCc1nc2cc(NC(=O)c3ccccc3Cl)ccc2n1C |  | inactive: -2.54%
O=C(N/N=C/c1ccccn1)c1sc2ccccc2c1Cl | active: 5 µM | 
O=C1c2ccccc2C(=O)N1CCCCN(C(=O)c1ccc(Cl)s1)c1ccc(Cl)cc1 |  | inactive: 1.38%
O=C(NC(=S)NNC(=O)c1ccccc1[N+](=O)[O-])c1ccc(Br)cc1 | inconclusive: 35.5 µM [activator, single point] | 
O=C1OC2(c3ccccc31)c1cc(I)c(O)c(I)c1Oc1c2cc(I)c(O)c1I | active: 15.8 µM | 
Cc1ccc(-c2nc(CS(=O)(=O)CC(=O)NCCN3CCCC3)c(C)o2)cc1 |  | inactive: -15.5%
O=C(NC(=S)N1CCN(Cc2ccccc2)CC1)c1ccco1 | inconclusive: 22.3 µM [inhibitor, partial curve] | 
COC(=O)c1c(NC(=O)C2CCCCC2)sc2c1CCN(C(C)C)C2 | inconclusive: 11.2 µM [inhibitor, partial curve] | 
CC1(OC(=O)CCc2ccccc2)C(=O)C=C2C=C(c3ccc(C#N)cc3)N(C3CCCC3)C=C2C1=O (stereo not given) | inconclusive: 354 nM [inhibitor, full curve] and inconclusive: 446 nM [inhibitor, full curve] | 
COC(=O)c1n[nH]nc1-c1ccccc1 | inconclusive: 15.8 µM [inhibitor, single point] | 
O=C(Nc1ccccn1)c1ccc2ccccc2c1O | inconclusive: 28.2 µM [inhibitor, single point] | 
Cc1cc(=O)[nH]c(N/N=C/C=C/c2ccccc2)n1 | inconclusive: 22.3 µM [inhibitor, single point] | 
C=CCNC(=S)NNc1nc(N2CCCC2)nc(N2CCCC2)n1 | inconclusive: 7.94 µM [inhibitor, partial curve] | 

Compound | Potency | activity, negative = inhibition
CC1C/C(=N\NC(=O)c2ccc(NS(=O)(=O)c3ccc(Br)cc3)cc2)CC(C)(C)C1 (stereo not given) |  | inactive: 2.65%
CCCc1cc(=O)oc2cc(C)cc(OCC(=O)NC(Cc3ccc(Cl)cc3)C(=O)O)c12 (stereo not given) | inconclusive: 20 µM [activator, single point] | 
Cc1ccc(C(=O)N/N=C/c2cc(Br)ccc2O)cn1 |  | inactive: -10.2%
COc1cc(C(=O)N(C)CC2CCN(CCc3cccc(C(F)(F)F)c3)CC2)ccc1C |  | inactive: 6.5%
CO[C@H]1C=CO[C@@]2(C)Oc3c(C)c(O)c4c(O)c(c5c(nc6cc(C)ccn65)c4c3C2=O)NC(=O)C(C)=CC=C[C@H](C)[C@H](O)[C@@H](C)[C@@H](O)[C@@H](C)[C@H](OC(C)=O)[C@@H]1C | inconclusive: 17.7 µM [inhibitor, single point] | 
COC(=O)Nc1ccc(OC)c(OC)c1 | inconclusive: 39.8 µM [inhibitor, single point] | 
CN(CCCOc1ccccc1F)Cc1ccccc1 | inconclusive: 25.1 µM [inhibitor, single point] | 
COc1ccc(C2/C(=C(/O)c3ccc(Br)cc3)C(=O)C(=O)N2C)cc1OC (stereo not given) |  | inactive: 4.78%
Cc1sc(NC(=O)c2ccco2)c(C(c2cccnc2)N2CCN(CCO)CC2)c1C (stereo not given) |  | inactive: 14%
CC1CCc2sc(-c3n[nH]c(=S)o3)cc2C1 (stereo not given) | inconclusive: 17.7 µM [activator, single point] | 
CCNC(=O)CSc1nnc(-c2cccc(S(=O)(=O)N(CC)CC)c2)n1CCc1ccccc1 |  | inactive: 1.17%
OCCNCCSc1ccc(Cl)cc1 | inconclusive: 7.06 µM [inhibitor, single point] | 
CCCCc1ccc(NC(=O)NCc2ccccn2)cc1 |  | inactive: -7.42%
O=C(COc1ccc(F)cc1)NCCN1CCCC1 | inconclusive: 17.8 µM [inhibitor, single point] | 
O=C(Nc1ccc(N2CCOCC2)c2nonc12)C1CCCC1 | active: 0.5 µM | 
Cc1ccc(/C(O)=C2/C(=O)C(=O)N(c3ccccn3)C2c2ccc([N+](=O)[O-])cc2)cc1 (stereo not given) | inconclusive: 14.1 µM [activator, partial curve] | 
Cc1[nH]c2ccccc2c1/C=N/Nc1nc2ccccc2[nH]1 | active: 17.7 µM | 
CCN(CC)S(=O)(=O)c1cccc(NC(=O)CNC2CCCCCC2)c1 | inconclusive: 19.9 µM [inhibitor, partial curve] | 
COc1ccc(OC)c(N2Cc3cc(C)c(C)cc3C2)c1 | inconclusive: 12.6 µM [inhibitor, partial curve] | 
Cc1ccc(C2C(C#N)=C(N)N(c3ncn[nH]3)C3=C2C(=O)CC(C)(C)C3)cc1 (stereo not given) | inconclusive: 22.3 µM [inhibitor, single point] | 
COc1cc([C@@H]2c3cc4c(cc3[C@@H](OC)[C@H]3COC(=O)[C@H]23)OCO4)cc(OC)c1O |  | inactive: -0.9%
CCOC(=O)c1ccc(NC(=O)NCc2ccccc2)cc1 |  | inactive: 1.18%
Cn1c(O)c(N=NC(=O)c2cc(-c3cccs3)nc3ccccc23)c2ccccc21 |  | inactive: 5.33%
Fc1ccc(CNCc2ccc3c(c2)OCO3)cc1 | inconclusive: 28.2 µM [inhibitor, partial curve] | 

Compound | Potency | activity, negative = inhibition
CCOC(=O)/C(C)=N/Nc1nc(-c2ccc(NC(C)=O)cc2)cs1 | inconclusive: 19.9 µM [inhibitor, partial curve] | 
C=CCOc1c(Br)cc(/C=C2\SC(=Nc3ccccc3)NC2=O)cc1OC | inconclusive: 17.8 µM [inhibitor, partial curve] | 
CC(=O)N(Cc1ccccc1)c1ncc2c(n1)c(=O)c(C#N)c1ccccn12 | inconclusive: 15.8 µM [inhibitor, partial curve] | 
COc1ccc(CCNc2ncnc3c2nnn3Cc2ccccc2)cc1OC |  | inactive: 7.41%
COCCNC(=S)N(C)C1(c2ccccc2Cl)CCCCC1=O (stereo not given) |  | inactive: -1.46%
CN(C(=S)Nc1cccnc1)c1ccc(O)cc1 | inconclusive: 1.77 µM [inhibitor, full curve] | 
COc1ccc(C(=O)Nc2ccc(C3(C#N)CCCC3)cc2)cc1 |  | inactive: -11.1%
CC(C)c1ccc2oc3nc(N)c(C(=O)O)cc3c(=O)c2c1 | inconclusive: 22.3 µM [activator, single point] | 
CN1C(=O)NC(=O)/C(=C/c2ccc([N+](=O)[O-])s2)C1=O | inconclusive: 19.9 µM [inhibitor, partial curve] | 
Cc1ccc(/C([O-])=C(/C(=S)Nc2ccc(SC(F)F)cc2)[n+]2ccccc2)cc1[N+](=O)[O-] | inconclusive: 22.3 µM [inhibitor, partial curve] | 
Oc1c(C=Nc2cccc3nsnc23)ccc2ccccc12 | active: 5 µM | 
Cc1ccc(C(=O)Nc2cc3c(oc2=O)CCCC3=O)cc1 |  | inactive: 2.26%
O=C(CSc1nc(-c2ccccc2)nc2ccccc12)Nc1cccc(C(=O)O)c1 | inconclusive: 19.9 µM [activator, partial curve] | 
Cc1ccc(N2C(N)=C(C#N)C(c3cccs3)C3=C2CC(C)(C)CC3=O)cc1 (stereo not given) | inconclusive: 15.8 µM [inhibitor, single point] | 
O=C(c1ccccc1F)N1CCN(C2CCC(c3ccccc3)CC2)CC1 (stereo not given) | inconclusive: 15.8 µM [inhibitor, partial curve] | 
C=CCOc1c(CNc2ccc(C(=O)O)cc2)cccc1OC | inconclusive: 15.8 µM [activator, single point] | 
COc1cccc(NC(=O)CSc2nn3c(=O)c(C)nnc3s2)c1 | inconclusive: 3.16 µM [inhibitor, full curve, poor fit] | 
Cc1cc2c(NC(=O)Nc3ccccc3)cccc2nn1 | active: 5 µM | 
Oc1cccc2cccnc12 | inconclusive: 4.46 µM [inhibitor, single point] and inconclusive: 31.6 µM [inhibitor, single point] | 
O=S(=O)(NNc1ccc(Cl)nn1)c1ccc(F)cc1 | inconclusive: 7.06 µM [inhibitor, partial curve] | 
Cc1nnc(SCC2=C(C(=O)O)N3C(=O)C(NC(=O)c4cccc(F)c4F)C3SC2)s1 (stereo not given) | active: 14.1 µM | 
O=C(O)CSc1nnc(COc2cccc3ccccc23)n1Cc1ccccc1 | inconclusive: 17.7 µM [activator, single point] | 
